Test results taken from paper PMC10424150.
Where two headings read alike, the source gives them in different places. Results are given in words; binding and its absence hold for the method and conditions named. In cells and extracts the contact can be indirect. Some results given as binding are weak or reduced against the parent protein; the word gives no strength. For some of these results: Sequences can lack the tags named with a protein.

Amino acid sequences for entries named in this document (tags omitted).
UniProt Q8NHY2: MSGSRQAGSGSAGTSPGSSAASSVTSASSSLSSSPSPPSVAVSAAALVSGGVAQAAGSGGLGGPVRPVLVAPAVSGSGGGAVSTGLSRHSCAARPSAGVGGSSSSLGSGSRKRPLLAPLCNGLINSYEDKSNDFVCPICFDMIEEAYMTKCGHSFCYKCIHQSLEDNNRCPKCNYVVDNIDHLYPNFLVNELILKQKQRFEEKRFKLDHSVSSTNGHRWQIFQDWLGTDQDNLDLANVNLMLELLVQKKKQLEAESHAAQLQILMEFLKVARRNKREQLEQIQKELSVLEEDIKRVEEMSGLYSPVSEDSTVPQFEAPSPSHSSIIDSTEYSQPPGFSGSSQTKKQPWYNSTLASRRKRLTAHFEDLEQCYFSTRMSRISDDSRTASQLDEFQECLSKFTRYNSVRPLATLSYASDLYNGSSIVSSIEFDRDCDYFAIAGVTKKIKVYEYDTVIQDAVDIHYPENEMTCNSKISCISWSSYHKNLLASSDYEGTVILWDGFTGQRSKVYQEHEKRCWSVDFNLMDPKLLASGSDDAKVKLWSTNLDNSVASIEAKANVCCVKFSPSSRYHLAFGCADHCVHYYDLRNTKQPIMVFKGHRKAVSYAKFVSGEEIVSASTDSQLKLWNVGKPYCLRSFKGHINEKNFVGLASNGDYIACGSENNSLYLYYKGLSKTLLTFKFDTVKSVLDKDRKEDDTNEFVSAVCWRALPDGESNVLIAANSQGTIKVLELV
UniProt Q7KZI7: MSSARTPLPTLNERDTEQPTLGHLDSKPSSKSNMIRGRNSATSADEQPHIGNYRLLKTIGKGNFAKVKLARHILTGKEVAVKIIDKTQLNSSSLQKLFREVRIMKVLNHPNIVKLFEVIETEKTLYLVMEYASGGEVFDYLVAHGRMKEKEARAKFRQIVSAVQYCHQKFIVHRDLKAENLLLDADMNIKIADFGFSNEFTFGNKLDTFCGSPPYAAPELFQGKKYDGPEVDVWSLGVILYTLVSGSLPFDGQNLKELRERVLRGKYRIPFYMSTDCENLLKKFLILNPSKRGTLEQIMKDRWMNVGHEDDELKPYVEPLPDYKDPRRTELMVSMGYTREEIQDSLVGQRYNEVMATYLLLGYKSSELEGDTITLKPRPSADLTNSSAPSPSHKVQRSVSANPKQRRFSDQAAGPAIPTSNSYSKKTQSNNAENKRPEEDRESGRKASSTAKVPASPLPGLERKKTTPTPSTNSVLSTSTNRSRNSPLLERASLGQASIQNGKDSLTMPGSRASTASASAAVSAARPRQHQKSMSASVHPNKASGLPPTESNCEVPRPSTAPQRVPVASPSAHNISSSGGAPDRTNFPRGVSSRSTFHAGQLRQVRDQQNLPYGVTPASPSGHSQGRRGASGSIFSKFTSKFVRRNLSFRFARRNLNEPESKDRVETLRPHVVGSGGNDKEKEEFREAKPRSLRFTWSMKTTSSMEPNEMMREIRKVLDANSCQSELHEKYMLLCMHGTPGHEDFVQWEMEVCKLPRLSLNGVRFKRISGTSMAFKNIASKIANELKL
UniProt Q13164: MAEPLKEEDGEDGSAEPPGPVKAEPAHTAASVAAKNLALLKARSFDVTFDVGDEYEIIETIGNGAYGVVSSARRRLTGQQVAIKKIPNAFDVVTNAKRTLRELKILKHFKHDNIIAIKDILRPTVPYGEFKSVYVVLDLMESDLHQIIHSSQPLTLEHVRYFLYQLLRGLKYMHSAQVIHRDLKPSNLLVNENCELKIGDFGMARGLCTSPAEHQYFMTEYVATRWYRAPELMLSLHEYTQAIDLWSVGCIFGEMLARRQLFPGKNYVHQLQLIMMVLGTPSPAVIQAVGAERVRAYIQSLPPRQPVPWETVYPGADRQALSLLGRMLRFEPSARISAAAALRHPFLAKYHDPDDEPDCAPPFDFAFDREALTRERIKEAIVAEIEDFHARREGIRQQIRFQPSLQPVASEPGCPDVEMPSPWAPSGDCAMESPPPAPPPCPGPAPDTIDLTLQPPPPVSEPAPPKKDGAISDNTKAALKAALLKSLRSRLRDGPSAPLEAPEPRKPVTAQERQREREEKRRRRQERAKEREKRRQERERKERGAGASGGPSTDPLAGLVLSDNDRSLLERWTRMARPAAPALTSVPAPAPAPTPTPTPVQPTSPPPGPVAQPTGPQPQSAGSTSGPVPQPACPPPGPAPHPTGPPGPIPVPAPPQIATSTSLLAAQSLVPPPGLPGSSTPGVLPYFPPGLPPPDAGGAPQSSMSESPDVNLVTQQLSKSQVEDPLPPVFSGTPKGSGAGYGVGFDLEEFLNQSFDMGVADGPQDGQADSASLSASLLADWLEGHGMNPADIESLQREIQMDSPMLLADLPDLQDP

T1: FLAG-TRAF7 N520S, meningioma mutant of full-length human TRAF7 (human) (UniProt Q6Q0C0)
T1 sequence: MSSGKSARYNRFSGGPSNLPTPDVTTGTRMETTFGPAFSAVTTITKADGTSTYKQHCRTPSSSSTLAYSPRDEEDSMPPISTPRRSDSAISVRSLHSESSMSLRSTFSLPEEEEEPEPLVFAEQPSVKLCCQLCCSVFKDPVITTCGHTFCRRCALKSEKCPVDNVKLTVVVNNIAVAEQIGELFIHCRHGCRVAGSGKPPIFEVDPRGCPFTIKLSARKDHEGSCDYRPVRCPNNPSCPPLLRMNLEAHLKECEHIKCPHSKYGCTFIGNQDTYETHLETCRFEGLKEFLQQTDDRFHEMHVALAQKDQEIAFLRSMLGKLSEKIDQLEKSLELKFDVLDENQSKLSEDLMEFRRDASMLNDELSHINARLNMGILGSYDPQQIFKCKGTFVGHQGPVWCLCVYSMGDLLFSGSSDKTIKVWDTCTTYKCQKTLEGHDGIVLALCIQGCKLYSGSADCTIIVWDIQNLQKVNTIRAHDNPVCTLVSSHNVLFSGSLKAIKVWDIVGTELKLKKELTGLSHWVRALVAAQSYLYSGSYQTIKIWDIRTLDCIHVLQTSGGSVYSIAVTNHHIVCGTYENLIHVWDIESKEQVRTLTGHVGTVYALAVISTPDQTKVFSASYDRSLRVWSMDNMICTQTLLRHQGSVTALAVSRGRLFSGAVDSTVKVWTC

T2: FLAG-TRAF7, full-length human TRAF7 (human) (UniProt Q6Q0C0)
T2 sequence: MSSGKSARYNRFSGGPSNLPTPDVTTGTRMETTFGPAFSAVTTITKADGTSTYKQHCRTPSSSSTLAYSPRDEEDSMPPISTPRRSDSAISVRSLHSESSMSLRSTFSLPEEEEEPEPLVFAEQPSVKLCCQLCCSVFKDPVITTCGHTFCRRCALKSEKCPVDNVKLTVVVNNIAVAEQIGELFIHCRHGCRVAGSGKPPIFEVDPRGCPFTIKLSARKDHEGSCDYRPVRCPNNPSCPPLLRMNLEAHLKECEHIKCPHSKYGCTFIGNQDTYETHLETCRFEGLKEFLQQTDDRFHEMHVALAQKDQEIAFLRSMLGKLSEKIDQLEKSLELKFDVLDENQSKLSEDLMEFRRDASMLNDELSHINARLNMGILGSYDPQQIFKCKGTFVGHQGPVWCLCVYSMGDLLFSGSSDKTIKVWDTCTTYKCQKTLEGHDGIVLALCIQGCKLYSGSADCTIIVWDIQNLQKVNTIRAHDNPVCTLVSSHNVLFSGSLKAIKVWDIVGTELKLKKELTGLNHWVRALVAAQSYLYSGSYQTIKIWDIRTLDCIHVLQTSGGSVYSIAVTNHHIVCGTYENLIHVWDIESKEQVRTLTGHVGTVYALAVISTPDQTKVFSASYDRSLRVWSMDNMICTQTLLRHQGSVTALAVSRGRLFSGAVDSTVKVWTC

T3: FLAG-TRAF7(375-670), C-terminal WD40 domain (human) (UniProt Q6Q0C0)
T3 sequence: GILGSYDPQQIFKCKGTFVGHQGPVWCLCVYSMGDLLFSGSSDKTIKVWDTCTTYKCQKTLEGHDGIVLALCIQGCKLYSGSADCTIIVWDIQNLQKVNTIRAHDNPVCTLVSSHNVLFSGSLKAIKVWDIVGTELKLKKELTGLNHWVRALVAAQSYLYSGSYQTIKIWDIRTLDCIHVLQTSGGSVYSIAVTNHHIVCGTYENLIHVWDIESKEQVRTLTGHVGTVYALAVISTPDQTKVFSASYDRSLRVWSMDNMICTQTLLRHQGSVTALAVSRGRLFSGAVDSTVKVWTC

T4: FLAG-TRAF7(121-292) (human) (UniProt Q6Q0C0)
T4 sequence: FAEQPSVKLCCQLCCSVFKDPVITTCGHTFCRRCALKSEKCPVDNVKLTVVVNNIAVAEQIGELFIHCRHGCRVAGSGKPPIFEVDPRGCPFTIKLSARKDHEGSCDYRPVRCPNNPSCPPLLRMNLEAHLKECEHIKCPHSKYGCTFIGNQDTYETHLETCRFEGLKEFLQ


Legend:
Assay in all cases: co-IP; FLAG-fusion baits overexpressed in HEK293; sonicated lysates (20 mM Tris-HCl pH 7.5, 20 mM NaCl, 0.5% IGEPAL CA-630, 1 mM DTT, 1 mM EDTA, 0.1 mM MG-132) rotated with anti-FLAG M2 magnetic beads for 3 hours, washed 3 times; endogenous partners detected by Western blot
[1] = target: T1, FLAG-TRAF7 N520S, meningioma mutant of full-length human TRAF7 (human)
[2] = target: T2, FLAG-TRAF7, full-length human TRAF7 (human)
[3] = target: FLAG-COP1, human E3 ubiquitin ligase constitutive photomorphogenic 1 (human) (UniProt Q8NHY2)
[4] = target: T1, FLAG-TRAF7 N520S, meningioma mutant of full-length human TRAF7 (human); remark: listed apart in the source
[5] = target: T3, FLAG-TRAF7(375-670), C-terminal WD40 domain (human)
[6] = target: T2, FLAG-TRAF7, full-length human TRAF7 (human); remark: listed apart in the source
[7] = target: FLAG-fusion protein of bacterial alkaline phosphatase (BAP) [phosphatase: P00634]
[8] = target: T4, FLAG-TRAF7(121-292) (human)

Row | binding [1] | binding [2] | binding [3] | binding [4] | binding [5] | binding [6] | binding [7] | binding [8] | Molecule
1 | no binding | no binding |  |  |  |  |  |  | serine/threonine-protein kinase MARK2, endogenous (from UniProt Q7KZI7 1-788)
2 | no binding | no binding |  |  |  |  |  |  | extracellular signal-regulated kinase 5 (ERK5), endogenous (from UniProt Q13164 1-816)
3 |  |  | no binding | binds | binds | binds | no binding |  | mitogen-activated protein kinase kinase kinase 3 (MEKK3), endogenous (protein, UniProt Q99759 1-626) MDEQEALNSIMNDLVALQMNRRHRMPGYETMKNKDTGHSNRQSDVRIKFEHNGERRIIAFSRPVKYEDVEHKVTTVFGQPLDLHYMNNELSILLKNQDDLDKAIDILDRSSSMKSLRILLLSQDRNHNSSSPHSGVSRQVRIKASQSAGDINTIYQPPEPRSRHLSVSSQNPGRSSPPPGYVPERQQHIARQGSYTSINSEGEFIPETSEQCMLDPLSSAENSLSGSCQSLDRSADSPSFRKSRMSRAQSFPDNRQEYSDRETQLYDKGVKGGTYPRRYHVSVHHKDYSDGRRTFPRIRRHQGNLFTLVPSSRSLSTNGENMGLAVQYLDPRGRLRSADSENALSVQERNVPTKSPSAPINWRRGKLLGQGAFGRVYLCYDVDTGRELASKQVQFDPDSPETSKEVSALECEIQLLKNLQHERIVQYYGCLRDRAEKTLTIFMEYMPGGSVKDQLKAYGALTESVTRKYTRQILEGMSYLHSNMIVHRDIKGANILRDSAGNVKLGDFGASKRLQTICMSGTGMRSVTGTPYWMSPEVISGEGYGRKADVWSLGCTVVEMLTEKPPWAEYEAMAAIFKIATQPTNPQLPSHISEHGRDFLRRIFVEARQRPSAEELLTHHFAQLMY

More lines, now with the values behind:

Row | Molecule | binding [1] | binding [2] | binding [3] | binding [4] | binding [5] | binding [6] | binding [7] | binding [8]
4 | MEKK2, endogenous (protein, UniProt Q9Y2U5 1-619) MDDQQALNSIMQDLAVLHKASRPALSLQETRKAKSSSPKKQNDVRVKFEHRGEKRILQFPRPVKLEDLRSKAKIAFGQSMDLHYTNNELVIPLTTQDDLDKAVELLDRSIHMKSLKILLVINGSTQATNLEPLPSLEDLDNTVFGAERKKRLSIIGPTSRDRSSPPPGYIPDELHQVARNGSFTSINSEGEFIPESMDQMLDPLSLSSPENSGSGSCPSLDSPLDGESYPKSRMPRAQSYPDNHQEFSDYDNPIFEKFGKGGTYPRRYHVSYHHQEYNDGRKTFPRARRTQGTSLRSPVSFSPTDHSLSTSSGSSIFTPEYDDSRIRRRGSDIDNPTLTVMDISPPSRSPRAPTNWRLGKLLGQGAFGRVYLCYDVDTGRELAVKQVQFDPDSPETSKEVNALECEIQLLKNLLHERIVQYYGCLRDPQEKTLSIFMEYMPGGSIKDQLKAYGALTENVTRKYTRQILEGVHYLHSNMIVHRDIKGANILRDSTGNVKLGDFGASKRLQTICLSGTGMKSVTGTPYWMSPEVISGEGYGRKADIWSVACTVVEMLTEKPPWAEFEAMAAIFKIATQPTNPKLPPHVSDYTRDFLKRIFVEAKLRPSADELLRHMFVHYH |  |  | no binding | binds |  | binds | no binding | 
5 | dual specificity mitogen-activated protein kinase kinase 5 (MEK5), endogenous (protein, UniProt Q13163 1-448) MLWLALGPFPAMENQVLVIRIKIPNSGAVDWTVHSGPQLLFRDVLDVIGQVLPEATTTAFEYEDEDGDRITVRSDEEMKAMLSYYYSTVMEQQVNGQLIEPLQIFPRACKPPGERNIHGLKVNTRAGPSQHSSPAVSDSLPSNSLKKSSAELKKILANGQMNEQDIRYRDTLGHGNGGTVYKAYHVPSGKILAVKVILLDITLELQKQIMSELEILYKCDSSYIIGFYGAFFVENRISICTEFMDGGSLDVYRKMPEHVLGRIAVAVVKGLTYLWSLKILHRDVKPSNMLVNTRGQVKLCDFGVSTQLVNSIAKTYVGTNAYMAPERISGEQYGIHSDVWSLGISFMELALGRFPYPQIQKNQGSLMPLQLLQCIVDEDSPVLPVGEFSEPFVHFITQCMRKQPKERPAPEELMGHPFIVQFNDGNAAVVSMWVCRALEERRSQQGPP |  |  | no binding | binds | binds | binds | no binding | binds
